For 23 compounds, survival results are on record in PubChem BioAssay AID463173 (ICCB-Longwood Screening Facility, Harvard Medical School, 2010).

In all, about 52,000 compounds went through this assay and about 1,700 (3.3%) were called active. Cut-off read from the data, not from the text of the source: active = survival mostly below about 52% (no sharp cut-off); inactive = mostly above about 56%. Some of the results follow.

The assay deals with Wild type. Description: S. aureus survival, RN4220 and DeltatarO strains – OD600, teichoic acid synthesis inhibitors, primary screen (AID 463173). The settings on record: S. aureus RN4220 wild type/DeltatarO growth, OD600, 18 h, active compounds read low, screened at 18.75 µg/mL (by protocol).
`CCOC(=O)c1c(C)n(-c2ccccc2)c2ccc(OC(=O)c3ccccc3NC(=O)C(C)(C)C)cc12`: the survival is inactive: 65%.

On to `Cc1ccc(NC(=O)c2c(C)nc3sc(C(=O)Nc4ccc(F)cc4)c(N)c3c2-c2ccccc2Cl)c(C)c1`, for which the survival is inactive: 65%.

On to `CCc1ccc(S(=O)(=O)c2cn(CC)c3cc(N4CCOCC4)c(F)cc3c2=O)cc1`, for which the survival was inactive: 69%.

Take `CC(=O)c1ccc(NC(=O)Cn2cc3c(n2)CCCC3)cc1`: the survival is inactive: 82%.

As to `O=C(O)c1cc(-c2ccc(C(F)(F)F)cc2)nc2n[nH]c(-c3ccccc3)c12`, the survival is inactive: 87%.

Consider `COc1ccccc1C(=O)Nc1nnc(S(=O)(=O)N(C)c2ccc(Cl)cc2)s1`, for which the survival was inactive: 107%.

As for `COc1ccc(Cl)cc1NC(=O)c1ccc2c(c1)CCCN2S(C)(=O)=O`, the survival is inactive: 79%.

For `CCN(CC)CCN1C(=O)C2C3c4ccccc4C(c4ccccc43)C2C1=O` (stereo not drawn), the survival was inactive: 113%.

Take `CCOc1ccc(CN2CCN(c3ncnc4sc5c(c34)CC(C)CC5)CC2)cc1` (stereo not drawn): the survival is inactive: 80%.

With `CCOc1ccc2c(c1)c(=O)c(S(=O)(=O)c1ccccc1)cn2CC(=O)Nc1ccccc1OC`, the survival is inactive: 72%.

For `Cc1ccc(CNC(=O)C2CCN(S(=O)(=O)c3ccc4c(c3)CCCN4C(=O)C3CCC3)CC2)cc1`, the survival is inactive: 99%.

Regarding `C=C(C)c1cccc(C(C)(C)NC(=O)N(C)C2CCN(C)CC2)c1`, the survival was inactive: 105%.

For the compound `Cc1nc(-c2ccccc2)sc1CCNS(=O)(=O)c1ccccc1`, the survival was inactive: 69%.

Take `O=C(NCCSc1c(-c2ccccc2)[nH]c2ccccc12)c1ccc(S(=O)(=O)N2CCOCC2)cc1`: the survival is inactive: 71%.

In the case of `Cc1ccccc1Cn1c(CN2CCC(C(=O)NCCN(C)C)CC2)cc2ccccc21`, the survival was inactive: 121%.

Consider `CCOc1ccc(S(=O)(=O)N(CC(=O)NCCc2ccc(OC)c(OC)c2)c2ccccc2)cc1`, for which the survival was inactive: 81%.

Consider `COc1cccc(NC(=O)c2cc3c(=O)n(C)c4ccccc4c3n2C)c1`, for which the survival is inactive: 93%.

For `O=C(c1cnn2c1NC(c1ccc(Br)cc1)CC2C(F)(F)F)N1CCCC1` (stereo not drawn), the survival was inactive: 95%.

Take `CCCCNC(=O)c1cnn2c(C)c(Cc3c(F)cccc3Cl)c(C)nc12`: the survival was inactive: 131%.

With `Cc1ccccc1NC(=O)CN1C(=O)C(C)(C)c2ccccc21`, the survival was inactive: 59%.

For `CCCCn1c(SCC(=O)N2c3ccccc3Sc3ccccc32)nc2c1c(=O)n(C)c(=O)n2C`, the survival was inactive: 99%.

For `Cc1cccc(C)c1NC(=O)Cn1c(=O)n(CCC(=O)NCc2ccccc2Cl)c(=O)c2sccc21`, the survival is inactive: 94%.

For `COc1ccc(OC)c(CCNC(=O)c2c(C)oc3ncn(C)c(=O)c23)c1`, the survival is inactive: 64%.
